According to the supplement of paper PMC3334620:
Over roughly 33,000 sequences, “E-score (-0.5 to 0.5)” has its median near -0.041; the highest 2% begin near 0.37. The list shows a part of the results.

molecular target: T1, Ecm22 (UniProt Q05958); experiment: PBM E-score (8-mer binding enrichment) (E-score (-0.5 to 0.5)); higher = stronger / more preferred TF binding; most listed sequences are background and not binding sites; conditions: protein concentration: 200 nM; construct: GST-full length
T1 sequence: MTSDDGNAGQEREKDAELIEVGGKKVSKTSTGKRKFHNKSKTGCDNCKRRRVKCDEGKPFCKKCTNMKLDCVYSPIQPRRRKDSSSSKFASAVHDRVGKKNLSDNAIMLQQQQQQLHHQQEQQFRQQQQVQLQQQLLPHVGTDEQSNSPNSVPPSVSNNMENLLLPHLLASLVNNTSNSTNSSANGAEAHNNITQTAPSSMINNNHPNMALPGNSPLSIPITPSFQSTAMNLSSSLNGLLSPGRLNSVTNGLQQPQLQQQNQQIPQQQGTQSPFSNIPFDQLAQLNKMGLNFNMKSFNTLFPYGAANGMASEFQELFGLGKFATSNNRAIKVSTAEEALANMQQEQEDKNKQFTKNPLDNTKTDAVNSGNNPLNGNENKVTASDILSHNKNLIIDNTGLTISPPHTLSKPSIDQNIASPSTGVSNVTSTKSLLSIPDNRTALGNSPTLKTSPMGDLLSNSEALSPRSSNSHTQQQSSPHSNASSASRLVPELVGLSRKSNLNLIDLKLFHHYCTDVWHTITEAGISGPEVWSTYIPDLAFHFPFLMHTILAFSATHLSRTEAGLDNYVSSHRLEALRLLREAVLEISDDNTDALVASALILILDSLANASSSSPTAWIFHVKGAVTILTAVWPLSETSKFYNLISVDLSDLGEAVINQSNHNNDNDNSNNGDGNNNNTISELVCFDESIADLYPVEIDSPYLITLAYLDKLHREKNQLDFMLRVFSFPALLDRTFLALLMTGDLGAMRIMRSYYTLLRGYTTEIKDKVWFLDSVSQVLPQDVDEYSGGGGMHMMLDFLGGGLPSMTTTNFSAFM
Method: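 Universal 'all 10-mer' protein binding microarrays (Agilent AMADID 015681) probed with GST-tagged S. cerevisiae TFs (full-length or DBD) made by in vitro transcription/translation (PURExpress), about 100-200 nM. Bound TF was detected with fluorescent anti-GST. Each ungapped 8-mer (which stands for itself and its reverse complement) is scored by the PBM enrichment score (E-score), a modified Wilcoxon-Mann-Whitney statistic from -0.5 to +0.5, computed with the Universal PBM Analysis Suite. Scale: above 0.35 generally sequence-specific binding.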

Sequence | PBM E-score
CGTGGAAG | -0.0408
CATTCACG | 0.0618
GGTGTGGA | 0.0381
GGACCTAA | 0.149
CAGTAACC | -0.0532
CTTCTGGC | -0.199
AACTTTGT | -0.164
GGTTATCA | -0.134
ATTCCCCA | -0.0894
CACGGGCA | -0.18
CCTGGACA | -0.215
GTGGTGAA | -0.133
TGCAACCA | 0.0663
CCTAGTAC | 0.0215
CTGCACCA | -0.137
CCAGGCAA | -0.169
CTTTTGTA | 0.125
AGCGAGAC | 0.193
CTCATGCC | -0.129
ACGACGGG | 0.393
ACGTGCAT | -0.0369
CTAGCACA | -0.324
ACTTCCCC | -0.324
TTCGACAA | 0.0503
CGAGTAAC | 0.334

Sequence | PBM E-score
CCCCAACG | -0.168
GCTGCGGA | -0.167
GGACCCTA | -0.183
GTGTATCA | -0.0197
ACAACAAG | 0.0901
CAGCACAC | -0.218
AAGTTAGG | -0.0797
AGTGTCAG | -0.0807
ACTCCATC | -0.264
ACTCGTCA | 0.0424
CTTAGGGA | -0.27
GGAGGGCA | -0.218
CGGTCTAG | 0.211
AAAATACG | 0.372
CAATTTCA | -0.16
ATTAACCG | 0.277
CAGTACTG | -0.0227
ATGGATGC | -0.105
GACTCTAC | 0.0581
TACTGGAA | -0.0395
ACTAGGGC | -0.385
AAGGGGGG | -0.257
CGCCGCCG | -0.0595
ATCCAAAG | -0.094
CACAGCGC | -0.215

Sequence | PBM E-score
GTCCTAAC | -0.196
CAATCGTA | 0.389
CAGGGTCG | -0.00935
CTCTTTTA | -0.0199
AGGTTCCG | -0.0965
AAAGATCC | -0.00107
AGCCATAC | 0.2
TGCACAAA | -0.22
CCCGGATC | 0.0112
CACTGCAC | -0.226
AGTTCTTG | -0.0776
CTTTTTAC | 0.128
AAGATCGT | 0.357
CGGAATAA | -0.0676
ATGGTAAA | -0.0721
CACACAGG | -0.0151
GTGTGTGA | -0.00185
GAATGGTA | -0.174
ATGGCAAC | -0.0475
AAATCGTA | 0.393
GTTCTTCA | 0.159
CGCTGTCA | -0.198
ACCAGTTA | -0.13
AATCCTCG | 0.178
CCGTTTAA | 0.441

Sequence | PBM E-score
AGTGTCTC | -0.13
ACAGACTC | -0.123
GATGTTGC | 0.00895
GCTGCCAA | -0.174
CACCCACG | 0.141
ATATGGCA | 0.0782
TACGTGGA | 0.149
CCTTGTCC | -0.19
AGTCAGCA | -0.209
ACAGGGGA | -0.106
CGTTGAAG | 0.0641
AGCTTAAT | 0.0921
CTCTGCTC | -0.0585
CCTCTAGA | -0.211
GCGAGTAC | 0.324
ATACTTGC | -0.099
CCGAGGCC | 0.117
CAACTGTC | -0.242
ATACTTCC | -0.0486
GACTGGGC | -0.249
ATACGAGA | 0.484
ACGTGGGG | -0.136
GAATACTC | 0.0101
CGATCTGC | 0.0941
GCGAGGTA | 0.285

Sequence | PBM E-score
GTCGATGA | 0.0278
AGGTCAGA | -0.204
ATGCTCGG | 0.106
TTAGTCAA | -0.147
CTCCCGGC | -0.113
CGTTGTCA | 0.0335
AAACGTCT | 0.149
AAGTGGAT | -0.147
CCGTGACA | -0.158
AGGCTTTG | -0.0925
CGGGTGGC | 0.0254
GATCTGTA | -0.0176
AGGTCATG | -0.106
GTATCTGA | 0.16
AAGGTGGG | -0.279
AACCTAAC | -0.0329
TGCCCAAA | -0.183
CCAGATAA | 0.0609
GGCATTTA | -0.303
ATGTGTAC | 0.17
AGCACTAC | -0.196
ATGAGCTG | -0.115
AAGTGCCT | -0.14
ACCCTGCG | -0.118
ATTCGCCC | -0.205

Sequence | PBM E-score
ATTAGCTA | -0.0396
CAACCGGC | -0.067
CAAGCAGA | -0.0616
ATAGCGCC | -0.144
GCGGAGGA | -0.0792
AAACGGAA | 0.315
CAACTAAC | 0.0369
CCAGACGC | -0.272
ACGCGTGG | 0.0106
CCTATGGA | -0.192
CCTGGTGC | -0.129
AGTCCCAG | -0.0584
AAAAAATT | -0.0574
CCGTTAAC | 0.198
GGGCCGCA | -0.0705
AGTTGGAC | -0.241
CTCCTTGA | -0.214
CACCAGGG | -0.226
CATGTTGG | -0.189
GGCAATCA | -0.144
ACCAAGCT | -0.0917
ACGAGTAT | 0.382
AAATGAAG | 0.126
ACTGCTGA | -0.19
AACGCGCA | 0.0254

Sequence | PBM E-score
ACAAACCA | -0.187
ATACCCTG | 0.0413
AGATCAAA | -0.111
CCTGTAGA | -0.254
GCCATCTA | -0.239
AGAATAAG | -0.163
CTAAGCCA | -0.267
ACTCCACG | -0.0229
ATAATAAC | 0.126
CTGAGTAA | -0.28
CGTGACAC | 0.0275
TATAGAGA | -0.0328
CGCGACTC | 0.0599
CCATTTCA | -0.31
AGCAGATG | -0.176
AATCGAAA | 0.00057
CTCATGTA | -0.011
GCAACGAC | 0.417
AAAGCGGG | -0.194
CAAGAGTA | -0.0598
CCGACTCA | -0.0201
CGATCGGA | 0.13
